The record followed here is patent US12551573B2, “Compositions and methods for the targeting of PCSK9” (Scribe Therapeutics Inc., priority 2022, dated 2026).

First the molecules themselves.
B1: DOMAIN_21626 (protein, listed as Monodelphis domestica)
chain: FQESVTFRDVAVDFTQEEWRHLEPAQRALYRDVMLENYENLVSVGIPVSRLDVTSLLERQEAVWKDGGLRDSCLDSLSNKI
B2: DOMAIN_21822 (protein, listed as Equus caballus)
chain: FQGSVMFSDVSIDFSQEEWEYLDLEQRALYRDVMLENYSNLVSLGCFISKPDVISLLEQGKEPWKVVRKGKRRYPDLETRY
B3: DOMAIN_21371 (protein, listed as Physeter macrocephalus)
chain: QPQEAVTFKDVEVTFSQDEWGWLDASQRNLYRDVMLENYGNVASLVGPFTKPALISWLEAREPWGLNVQGAHPKGSPSAAP
B4: DOMAIN_21162 (protein, listed as Sarcophilus harrisii)
chain: LQESVTFSDVAVDFTLEEWGCLCPPQKEMYREVMLENYGNLVCLGLAMSKPDVISRLERGEAPRSPGGDLGSADWGTESGA
B5: DOMAIN_21197 (protein, listed as Tursiops truncatus)
chain: TQVSVTFDDVAVTFTQEEWRQLDPAQRTLYQEVMLENCRLLVSLGCPVPRLELIFQLEQGQKLWTVKKDLSRSTCPGKRCR
B6: DOMAIN_21086 (protein, listed as Pteropus vampyrus)
chain: FQGSVMFRDVSINFSQEEWECLDPGQMNLYKEVMLENFSNLVSVGLSSAKPVVISLLEEGKEPWMVEREVKRGLCSDLESM
B7: DOMAIN_21276 (protein, listed as Mandrillus leucophaeus)
chain: FEELVTFEDVFVDFSPEELSSLSAAQRNLYREVMLENYRNLVSLGYQFSKPDIISRLEAEESRAMEKDSRHTVICQGEAHD
B8: DOMAIN_21862 (protein, listed as Chlorocebus sabaeus)
chain: FEELVTFEDVFVDFSPEELSSLSAPQRNLYREVMLENYRNLVFLGYQFSKPDIISRLEVEESHAMETDSRHTVICQGEAHD
B9: DOMAIN_21334 (protein, listed as Equus caballus)
chain: TSAPVTFGDLAIYFSQEEWEWLSPVQKALYEDVMLENYQTLASLGLSFRRPNVITLLEKGKAPWMVEPVRRRRGLDSGSKC
B10: DOMAIN_21123 (protein, listed as Callorhinus ursinus)
chain: FQESVTFEDVAVYFSENEWTGLAPAQRVLYRDVMLENYGAVASLAAFPFPKPALISQLERGEAPWCKAPQGALDGEGPRGV
B11: DOMAIN_21260 (protein, listed as Pteropus vampyrus)
chain: MEPVTFEDVAVYFTQNQWASLDPVQRALYREVMLENYANVASLAFPFPKPVLISQLEQGEAPWGPDPGEAEVLKGIWPGGE
B12: DOMAIN_21823 (protein, listed as Equus caballus)
chain: QAELTFEDVAVFLSQEEWGRLDPAQRGLYRDVMLETYRNLVSLGAGPAGPKPGVITQLERGDEPWVLDTQGVEGRERQKVD
B13: DOMAIN_21588 (protein, listed as Callorhinus ursinus)
chain: PQESVTFKDIAVDFTQEEWALLDTSQRKLYRDVMLENISHLVSVGYHLCKSDVISQLEQGVELWREGRGFPQGPNPDRKSG
B14: DOMAIN_21658 (protein, listed as Monodelphis domestica)
chain: SQEVVTFQDVAVNFTREEWRLLSPPQKELYREVMLENARNLLSVGLPASIEDVISNVEQREALWMLEREGLRSCCPEEDIR
B15: DOMAIN_21161 (protein, listed as Sarcophilus harrisii)
chain: PQECVTFKDVAVNFTQEEWQQLNPAQRDLYREVMLENYRNLISLGLPVSKPDVIFQLEQGEEPWMLDLQRIEEGEISRNMY
B16: DOMAIN_21367 (protein, listed as Equus caballus)
chain: SQGSVTFGDVAIDFSREEWEWLQPAQRDLYRIVMLENYGHLVSLGLNVSKPDVVSLLEQGKEPWLGNGDVRRDLFSVSESN
B17: DOMAIN_21844 (protein, listed as Aotus trivirgatus)
chain: VQEPVTFKDVAVDFTQEEWGQLDLVQRTLYRDVMLETYGHLLSVGNQIAKPEVISLLEQGEEPWSVEQTCPQRSCPEWMRN
B18: DOMAIN_21786 (protein, listed as Trichechus manatus)
chain: AQEFVMFRDVAVFFSQEEWGHLDPAQRALYREVMLENYSNLVSLGIRFSKPKVISQLQQGEDPWMVDRGVPQGACQGWKSL
B19: DOMAIN_21369 (protein, listed as Equus caballus)
chain: AQESLTFDDVAVEFTWEEWQLLAPAQKDLYRDVMLENYSNLVSVGYQASKPDALSKLVQGEPPWTMEDEIHCRTHSEIWEV
B20: DOMAIN_21335 (protein, listed as Equus caballus)
chain: RQEPVTFEDVAVYFTQNEWVILDPAQRALYREVMLENYANVASLAFSFTRPVLVSQLERGELPPGLDPWERASPEALRGIC
B21: DOMAIN_21175 (protein, listed as Callorhinus ursinus)
chain: SQEPVTFEDVAVYFTQNQWASLDPMQRALYLEVMLENYANITSLALPFPKPDLILQLEQGEAPWGLDPWTPLDGEALGGVH
B22: DOMAIN_21333 (protein, listed as Zalophus californianus)
chain: SQEPVTFEDVAVYFTQNQWASLDPMQRALYLEVMLENYANITSLALPFPKPDLILQLEQGGAPWGLDPWTPLEGEALGGVH
B23: DOMAIN_21312 (protein)
chain: QAEVTFEDVAVLLSREEWGRLGPVQKGLYRDVMLETYRNLVSLGAGPAGPKPEVITQLERGDEPWVPDVQGREQPTIDGSA
modifications: Lipotes vexillifer
B24: DOMAIN_21421 (protein, listed as Pteropus vampyrus)
chain: EMDSVTFEDVAVNFTSEEWALLDPSQKKLYRAVMRETFRNLASIGLNLGKKWEDHNIEDRYKTHGKKLRSHMVEKLHESKE
B25: DOMAIN_21889 (protein, listed as Equus caballus)
chain: FQGSLSIEDVTVGFTQEEWQHLDPAQRTLYRDVMLENYSHLVSVGYCIPKPEVIFKLERGEQLWILEEESSSQSHPEVCKV
B26: DOMAIN_21110 (protein)
chain: SKVPVTFGDLAIYFSQEEWEWLHPAQRDLYRHVMLENYGHLVSLGLNISKPYVVSLLEQGRDPWLDNRDVRRDLFSESKGE
modifications: Neovison vison
B27: DOMAIN_21481 (protein, listed as Pan paniscus)
chain: LRGLVTFEDVAVEFTQEEWALLDPAQRTLYRDVMLENCRNLASLGCRVNKPSLISQLEQDKKVITEERGILPSTCPDLETL
B28: DOMAIN_21632 (protein, listed as Monodelphis domestica)
chain: SQELVTFEDVAIYFTEEEWGLLDPAQRKLYRDVMLENFGNVLLLGFPVSKPDIISKLERGEIPCVPFLPRKKILVIRLGGG
B29: DOMAIN_21133 (protein, listed as Suricata suricatta)
chain: AQESVTFRDVAVVFSRDEWLCLDPAQRSLYREVMLENYGTLVSLGILFSKPKVIFQLQQGEDPWMVESGVSQGPCVGWESM
B30: DOMAIN_21494 (protein, listed as Tursiops truncatus)
chain: MDSVTIEDVAVDFTLEEWALLGPSQRKLYRDVMQETLRNLAAVGAKREYHAIEDQYKNQGRKLRTFMVERFCKSKDISLCG
B31: DOMAIN_21226 (protein, listed as Sarcophilus harrisii)
chain: PQGPVTFQDVAVVFTQEEWRYLDPSQKELYRDVMLENYRNLLYLGLVVSKPNVIYRFEQGEASWRPDQRDSGSTCSDEETG
B32: DOMAIN_21612 (protein, listed as Aotus trivirgatus)
chain: ESVAFEDVAVYFTQNQWASLDPAQRALYREVMLENYANVASLVAFPFPKPALISHLEKGEAPWGPDPWDAEIPSSLSQGDE
B33: DOMAIN_389 (protein, listed as Pan paniscus)
chain: MAEGLKFKDVVIYFSQKEWECLHSAQKDLYRDVMLENYGNLVLLGLSDTKPNVISLLEQKKEPWMVKRKETKEWCPDWEFG
B34: DOMAIN_407 (protein, listed as Pan paniscus)
chain: TCMVHRQTMSCSGAGGITAFVAFRDVAVDFTQEEWRLLSPAQRTLHREVMLETYNHLVSLEIPSSKPKLIAQLERGEEPWR
B35: DOMAIN_382 (protein, listed as Pan paniscus)
chain: MAHLMMFRDVAVDFSQEEWECLDLEQRGLYRDVMLENYSNMVSLGLCIYQPEAFSLLEKGKEPWKILRDETRGPCPDMQSR
B36: DOMAIN_418 (protein, listed as Pan paniscus)
chain: MIEYQIPVSFKDVVVGFTQEEWHQLSPAQRALYRDVMLETYSNLVSVGYEGTKPDVILRLEQEEAPWIGEAACPGCHCWED

For one assay, the system named is HBEGF locus. Format: cell-based, human. As to conditions: high-throughput screen of dXR repression of the HBEGF gene; abundance of each domain in the library before vs after diphtheria toxin selection; listed domains met p-value <0.01 and log2(fold change) >2.
On to B1, for which the “Log2 (fold change)” value is listed as 3.5419.
Same read-out and setting: then B2, with 3.5647; and B3, with 3.8804; and B4, with 2.885.
For the molecule B5, the “Log2 (fold change)” value was determined as 2.214.
On the same count and under the same terms, then B6, with 2.1339; and B7, with 3.0178; and B8, with 2.3797.
On the same count and under the same terms, then B9, with 2.9508.
Still for that read-out and setting: in the case of B10 it was 3.237; in that of B11, 3.1806; in that of B12, 3.2474.
Turning to B13, the “Log2 (fold change)” value is 3.4914.
B14: the “Log2 (fold change)” value is given as 3.1325.
Still for that read-out and setting: in the case of B15 it was 3.2208.
With B16, the “Log2 (fold change)” value was 2.9921.
Same read-out and setting: then B17, with 3.467; and B18, with 3.2249; and B19, with 2.7947.
Take B20: the “Log2 (fold change)” value amounted to 2.518.
Still for that read-out and setting: in the case of B21 it was 3.3334; in that of B22, 3.5801.
On the same count and under the same terms, then B23, with 3.5287.
On to B24, for which the “Log2 (fold change)” value was determined as 2.7713.
The same measure, in the same setting: then B25, with 3.6563; and B26, with 2.499; and B27, with 2.7056.
Same read-out and setting: then B28, with 2.6551; and B29, with 3.1021; and B30, with 3.783.
On the same count and under the same terms, in the case of B31 it was 2.6942.
For B32, the “Log2 (fold change)” value was 3.2931.

The assay is the same for the next values; noted with them: high-throughput screen of dXR repression of the HBEGF gene; change in abundance of each domain in the library before and after diphtheria toxin selection.
Regarding B33, the “Log2 (fold change)” value was found to be 3.011.
Same read-out and setting: then B34, with 3.8312.
With B35, the “Log2 (fold change)” value is on record as 3.1625.
For the molecule B36, the “Log2 (fold change)” value is 3.2429.
